Measurements as given in publication PMC7904744, “Poly(ADP-ribosyl)ation enhances HuR oligomerization and contributes to pro-inflammatory gene mRNA stabilization” (Cellular and Molecular Life Sciences: CMLS, 2020).

Molecular target: the molecule itself
Assay: native gel or EMSA; RNA-EMSA: purified and eluted GST proteins (PARylated or not) with 5 nM 5' biotin-labelled ARE repeat or Cxcl2-ARE RNA oligo, 40 min, room temperature, 3 mM MgCl2, 40 mM KCl, 5% glycerol, 2 mM DTT, tRNA; 6% native gel; multiple shifted bands read as oligomeric HuR on the RNA

B1: GST-HuR D226A (natural protein)
chain: not shown
notes: HuR (ELAVL1), human, with D226A made in the background of GST-HuR; The samples with and without PARP1 incubation are kept as one molecule; also called D226A mutant of GST-HuR; D226 mutant; source: E. coli BL21, purified (glutathione Sepharose 4B); used with or without incubation with recombinant PARP1 enzyme
binding result: binds
